# Assay results taken from PubChem BioAssay AID493208 (National Center for Advancing Translational Sciences (NCATS), 2011).
# Screen size: about 44,000 compounds; about 340 (0.77%) were called active. About 5% were inconclusive and are not listed. The call rests on the fitted dose curve; in most records, active means well fitted inhibition curve with a large enough effect; inconclusive means small, poorly fitted or top-dose-only effect; inactive means flat fitted curve, though single readings scatter. The list shows a part of the results.
# Assay: Acumen qHTS Assay for Inhibitors of the mTORC1 Signaling Pathway in MEF (Tsc2-/-, p53-/-) Cells: Sytravon; further: nearly all actives have a fitted effect of over 50% in size;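 on activity change, negative = inhibition: plate controls were DMSO for no effect and rapamycin for full effect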
# Conditions: phospho-rpS6 immunofluorescence/PI, 24 h; series mostly up to 38.3 µM; activity change, negative = inhibition: at the top concentration
# In short: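 Tsc2-/-, p53-/- MEFs (empty-vector stable line) in DMEM + 10% FBS were treated with compounds 24 h at 37 degree Celsius, fixed, and immunostained for phospho-rpS6 (Alexa-488) with propidium iodide counterstain. Laser-scanning cytometry gave % positive cells, normalized against 7.5 nM rapamycin and DMSO.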
# Potency means the concentration at half of the fitted maximal effect.
SMILES,"activity change, negative = inhibition",Potency
CC1CN(C(=O)CCC(=O)NCc2cccc(Cl)c2)c2ccccc2S1 (configuration not stated),inactive: -0.798%,–
COc1ccccc1C(=O)N(Cc1nc(-c2cccc(C)c2)no1)C(C)C,inactive: -14.7%,–
COc1ccc(S(=O)(=O)c2cnc3cc(OC)c(OC)cc3c2N2CCCC(C)C2)cc1 (configuration not stated),inactive: -3.2%,–
O=C(O)c1ccc(Cn2cnc3cccnc32)cc1,inactive: 0%,–
CC1CCN(CC2CCN(C(=O)NCc3ccc(F)cc3)CC2)CC1,inactive: -0.821%,–
CCOc1ccc(C2C(C(=O)Nc3ccccc3)=C(C)Nc3nc(SCc4cccc(OC)c4)nn32)cc1 (configuration not stated),inactive: 0.688%,–
Cc1ccc(/C=C/c2onc(C)c2S(=O)(=O)N2CCC(C(=O)N3CCN(c4cccc(C)c4)C(C)C3)CC2)cc1 (configuration not stated),inactive: -4.16%,–
Cc1nn(C(C)C(=O)NC2CCC(C)CC2)c(=O)c2c1sc1ccccc12 (configuration not stated),–,active: 2070 nM
CCc1ccc(OCc2nc(-c3ccc(-n4cccc4)cc3)no2)cc1,inactive: -17%,–
CCc1nc(-c2cc(S(=O)(=O)N3CCN(c4ccc(OC)cc4)CC3)ccc2OC)no1,inactive: 0.33%,–
O=S(=O)(NCCc1csc2nc(-c3ccccc3)nn12)c1cccs1,inactive: -0.512%,–
CCOc1ccc(-c2cn3c(n2)sc2cc(C(=O)NCCc4ccc(OC)cc4OC)ccc23)cc1,inactive: -1.04%,–
COc1cccc2c1cc1c(=O)n(CC(=O)N3CCN(c4cccc(C(F)(F)F)c4)CC3)nc(C)n12,inactive: -1.45%,–
CCOc1ccccc1NC(=O)C(CC(C)C)NC(=O)C1CCC(C)CC1 (configuration not stated),inactive: 0.279%,–
CCCCN(CC)C(=O)CSc1nc2n[nH]c(C)c2c(=N)n1-c1cccc(C)c1,inactive: -1.53%,–
COc1ccc(-n2nc3ccc(NC(=O)c4ccc(C#N)cc4F)cc3n2)cc1Cl,inactive: -1.7%,–
O=C(COc1ccccc1Cl)Nc1nnc(S(=O)(=O)N2CCCC2)s1,inactive: 4.95%,–
Cc1ccc(NC(=O)CCc2c(C)nn(-c3ccc(N4CCOCC4)nn3)c2C)c(C)c1,inactive: 0.753%,–
COc1ccc(Cn2c(CO)cnc2SCC(=O)Nc2ccc3c(c2)OCCO3)cc1,inactive: -15.8%,–
COc1cccc(COC(=O)c2ccc(-c3nnn(Cc4cccc(OC)c4)n3)cc2)c1,inactive: -1.1%,–
O=C(Nc1cccs1)Nc1ccc(F)cc1F,inactive: 1.3%,–
O=C(Nc1cccc(C(F)(F)F)c1)c1cc(-c2ccc(Cl)s2)nc2ccccc12,inactive: 0.622%,–
O=C(O)Cn1c(-c2cccs2)cc2cc(Cl)ccc21,inactive: 0.0701%,–
COc1cccc2sc(NC(=O)CS(=O)(=O)c3ccc(C)cc3)nc12,inactive: -0.0458%,–
CCOc1ccc(NC2SC(=O)N(Cc3ccccc3)C2=O)cc1 (configuration not stated),inactive: -6.86%,–
COCCCNC(=O)Cn1nc(N2CCN(c3ccccc3)CC2)ccc1=O,inactive: 1.86%,–
Cn1c(-n2cccc2)c(-c2c(-c3ccc(F)cc3)[nH]c3c2c(=O)n(C)c(=O)n3C)c(=O)n(C)c1=O,inactive: -4.6%,–
